Enrichment ratio data for 195 variants are collected here from a collection of fitness landscapes (doi:10.1126/science.1257360).

B1: PhoQ; a variant is named by its letters at X, in order, P23837 (parent)
chain: MKKLLRLFFPLSLRVRFLLATAAVVLVLSLAYGMVALIGYSVSFDKTTFRLLRGESNLFYTLAKWENNKLHVELPENIDKQSPTMTLIYDENGQLLWAQRDVPWLMKMIQPDWLKSNGFHEIEADVNDTSLLLSGDHSIQQQLQEVREDDDDAEMTHSVAVNVYPATSRMPKLTIVVVDTIPVELKSSYMVWSWFIYVLSANLLLVIPLLWVAAWWSLRPIEALAKEVRELEEHNRELLNPATTRELTSLVRNLNRLLKSERERYDKYRTTLTDLTHSLKTPLXXLQXXLRSLRSEKMSVSDAEPVMLEQISRISQQIGYYLHRASMRGGTLLSRELHPVAPLLDNLTSALNKVYQRKGVNISLDISPEISFVGEQNDFVEVMGNVLDNACKYCLEFVEISARQTDEHLYIVVEDDGPGIPLSKREVIFDRGQRVDTLRPGQGVGLAVAREITEQYEGKIVAGESMLGGARMEVIFGRQHSAPKDE

Some of the results follow. A value given as a limit tells only on which side of the number the result lay.

Variants of B1 are the subject of this assay. In words: enrichment ratio after two sorts for PhoP signalling (ratio (wild type AVST 3.29)); higher = more functional. Particulars: with PhoP (E. coli).
Turning to MFDL, the enrichment ratio is no more than 0.25.
Consider VIHD, for which the enrichment ratio is no more than 0.25.
Then VLIF, with no more than 0.25.
On to QCPP, for which the enrichment ratio is no more than 0.25.
Then ISLN, with no more than 0.25.
The same measure for MPHM: no more than 0.25; for VRYA: no more than 0.25.
Take TYNK: the enrichment ratio is no more than 0.25.
Consider QCYN, for which the enrichment ratio was no more than 0.25.
Then RTDD, with no more than 0.25.
Then VCHP, with no more than 0.25.
The same measure for DDWF: no more than 0.25; for VDKW: no more than 0.25.
QHGA: the enrichment ratio was no more than 0.25.
The same measure for NWIW: no more than 0.25.
The same measure for MNVV: 1.59; for PLCK: no more than 0.25.
The same measure for FNLY: no more than 0.25.
As for HVSM, the enrichment ratio was no more than 0.25.
Then LRCP, with no more than 0.25; and AANF, with no more than 0.25; and NCFW, with no more than 0.25.
The same measure for LANW: no more than 0.25.
Then IYQE, with no more than 0.25; and IVPD, with no more than 0.25.
Regarding GQRL, the enrichment ratio is no more than 0.25.
For NEET, the enrichment ratio is no more than 0.25.
Then EYLW, with no more than 0.25; and PSND, with no more than 0.25; and RCEG, with no more than 0.25.
As to VTSY, the enrichment ratio was 0.277.
The same measure for HNNY: no more than 0.25; for GCAS: no more than 0.25.
The same measure for WNKE: no more than 0.25; for VHQA: 0.499.
On to AYCI, for which the enrichment ratio is no more than 0.25.
Then SMRY, with no more than 0.25.
The same measure for KSYD: no more than 0.25; for DSCS: no more than 0.25; for TCGM: 15.3.
Turning to WAKE, the enrichment ratio is no more than 0.25.
As to TWFI, the enrichment ratio is no more than 0.25.
Then YFAT, with no more than 0.25.
Then TGHE, with 9.44; and RGYW, with no more than 0.25.
Take TWTQ: the enrichment ratio is no more than 0.25.
Then VGAA, with no more than 0.25.
PHWY: the enrichment ratio is no more than 0.25.
Then FLWE, with no more than 0.25; and AAPW, with no more than 0.25; and LHMK, with no more than 0.25.
Then FPVH, with no more than 0.25; and NFNM, with no more than 0.25.
The same measure for TEWT: 12.8.
As for YNMF, the enrichment ratio was no more than 0.25.
The same measure for RWHT: no more than 0.25; for EPAN: no more than 0.25.
Regarding TDEY, the enrichment ratio is no more than 0.25.
The same measure for WNMF: no more than 0.25; for ADSV: 4.14; for DWKF: no more than 0.25.
Then AYKH, with no more than 0.25; and DYSG, with no more than 0.25.
As for LDCD, the enrichment ratio is no more than 0.25.
The same measure for GHRT: no more than 0.25.
The same measure for TPWS: no more than 0.25.
Then SHRM, with no more than 0.25; and WRTK, with no more than 0.25.
Turning to CSAY, the enrichment ratio is no more than 0.25.
The same measure for NDLV: no more than 0.25.
In the case of HVMY, the enrichment ratio is no more than 0.25.
The same measure for NMPY: no more than 0.25.
Consider YYEF, for which the enrichment ratio was no more than 0.25.
The same measure for WPQT: no more than 0.25; for DHNF: no more than 0.25.
On to KQQA, for which the enrichment ratio was no more than 0.25.
Then TWNG, with no more than 0.25; and HDKF, with no more than 0.25; and HWAN, with no more than 0.25.
The same measure for KVFW: no more than 0.25; for QMTE: no more than 0.25.
On to QMYG, for which the enrichment ratio is no more than 0.25.
The same measure for LMHI: no more than 0.25.
The same measure for HSSS: no more than 0.25.
The same measure for ASKS: no more than 0.25.
With DRWP, the enrichment ratio is no more than 0.25.
Then MVAV, with 11.4.
The same measure for KADP: no more than 0.25.
For QKCD, the enrichment ratio was no more than 0.25.
Then PTQQ, with no more than 0.25; and NESR, with no more than 0.25.
The same measure for LAPN: no more than 0.25; for WKQC: no more than 0.25.
Then IFLW, with no more than 0.25; and YIVF, with no more than 0.25.
For DEMY, the enrichment ratio is no more than 0.25.
With WTFM, the enrichment ratio is no more than 0.25.
The same measure for YSFQ: no more than 0.25.
RRPP: the enrichment ratio was no more than 0.25.
For VPED, the enrichment ratio was no more than 0.25.
The same measure for NIRL: no more than 0.25.
Then TQMF, with 1.83.
As for HFMH, the enrichment ratio was no more than 0.25.
The same measure for QPTR: no more than 0.25; for LTHK: no more than 0.25.
The same measure for HLTE: no more than 0.25.
Then AWEL, with no more than 0.25.
As for ILHN, the enrichment ratio was no more than 0.25.
With EMMC, the enrichment ratio was no more than 0.25.
Then HSSM, with 1.54; and YWTN, with no more than 0.25; and DGVN, with no more than 0.25.
Then IPPW, with no more than 0.25.
The same measure for RVPG: no more than 0.25; for VQLW: no more than 0.25; for EPVM: no more than 0.25.
For ALHL, the enrichment ratio is no more than 0.25.
Then PVAG, with no more than 0.25; and SNEW, with no more than 0.25; and WGWF, with no more than 0.25.
With YQHR, the enrichment ratio is no more than 0.25.
The same measure for FPDD: no more than 0.25; for VTVC: no more than 0.25; for GFEL: no more than 0.25.
Then ENCG, with no more than 0.25.
The same measure for SHGM: no more than 0.25.
On to FAWM, for which the enrichment ratio is no more than 0.25.
Turning to AVVQ, the enrichment ratio amounted to 3.9.
The same measure for FWLM: no more than 0.25.
The same measure for KDAV: no more than 0.25; for TNGA: 4.37.
MQQH: the enrichment ratio was no more than 0.25.
As to DPPC, the enrichment ratio is no more than 0.25.
The same measure for NHVK: no more than 0.25.
The same measure for SPWL: no more than 0.25.
Then APCP, with no more than 0.25.
In the case of EQYW, the enrichment ratio was no more than 0.25.
Consider SMVC, for which the enrichment ratio worked out at 1.02.
On to PKVG, for which the enrichment ratio was no more than 0.25.
The same measure for PFAV: no more than 0.25.
The same measure for TKGV: 0.818; for VACN: no more than 0.25.
As to ITDP, the enrichment ratio is no more than 0.25.
For the variant EYFT, the enrichment ratio was no more than 0.25.
On to NQDM, for which the enrichment ratio was no more than 0.25.
Then NEPK, with no more than 0.25.
VDCK: the enrichment ratio is no more than 0.25.
The same measure for MGLQ: 16.
The same measure for TAAH: 19.2; for IATV: no more than 0.25; for TDCH: 11.9.
The same measure for PCPY: no more than 0.25; for ESWM: no more than 0.25.
Take TWHM: the enrichment ratio is no more than 0.25.
The same measure for KIRE: no more than 0.25; for WHHH: no more than 0.25; for LVDG: no more than 0.25.
With AFLG, the enrichment ratio stood at 15.7.
Regarding WVVW, the enrichment ratio was no more than 0.25.
The same measure for YTSK: no more than 0.25.
Then IIES, with no more than 0.25.
The same measure for FVKE: no more than 0.25; for RTFA: no more than 0.25.
As to NLWT, the enrichment ratio was no more than 0.25.
In the case of TAFR, the enrichment ratio turned out to be 0.781.
Then LEFY, with 0.594.
Then MQNS, with no more than 0.25.
Regarding TTYW, the enrichment ratio was no more than 0.25.
Then VLSD, with no more than 0.25.
For the variant PSCP, the enrichment ratio is no more than 0.25.
Then NWNK, with no more than 0.25; and QPTD, with no more than 0.25; and RWNL, with no more than 0.25.
The same measure for EPMG: no more than 0.25.
On to LKNT, for which the enrichment ratio was no more than 0.25.
Then NLDV, with no more than 0.25; and ALHN, with no more than 0.25; and KLGA, with no more than 0.25.
The same measure for IDKE: no more than 0.25; for IAND: no more than 0.25; for NNMY: no more than 0.25.
As for NEFS, the enrichment ratio is no more than 0.25.
In the case of RART, the enrichment ratio was no more than 0.25.
Then MLQY, with no more than 0.25.
Then RTYS, with no more than 0.25.
The same measure for RWSM: no more than 0.25; for ARGP: no more than 0.25.
As to DHQE, the enrichment ratio was no more than 0.25.
The same measure for YWCR: no more than 0.25.
Then MVFV, with no more than 0.25; and PEHC, with no more than 0.25; and WDVN, with no more than 0.25.
The same measure for FSIR: no more than 0.25.
Regarding EPAG, the enrichment ratio is no more than 0.25.
In the case of YGIW, the enrichment ratio was no more than 0.25.
